Experimental data taken from US20240425555A1 (NORTHWESTERN UNIVERSITY, published 2024).

Target: T1, PTEFb complex (CDK9 and Cyclin T1), endogenous, from cell lysate (human, UniProt P50750; O60563 1-726)
T1 construct: Endogenous complex captured from cell lysate and detected by mass spectrometry or by western blot for CDK9 and Cyclin T1; Other associated proteins in the lysate are not excluded; also called positive transcription elongation factor
Test: GFP IP-MS and western blot

T1 sequence (P50750 whole entry, chain 1 of 2): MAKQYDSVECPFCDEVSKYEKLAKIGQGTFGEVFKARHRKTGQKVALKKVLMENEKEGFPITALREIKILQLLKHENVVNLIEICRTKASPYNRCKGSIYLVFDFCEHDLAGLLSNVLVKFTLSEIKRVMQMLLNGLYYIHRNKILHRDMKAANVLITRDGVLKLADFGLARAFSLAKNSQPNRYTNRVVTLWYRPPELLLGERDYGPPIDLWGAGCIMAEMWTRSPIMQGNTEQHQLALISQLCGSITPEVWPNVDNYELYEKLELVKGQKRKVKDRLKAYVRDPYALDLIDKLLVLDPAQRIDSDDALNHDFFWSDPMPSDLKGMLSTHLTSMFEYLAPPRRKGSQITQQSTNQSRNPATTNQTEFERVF
T1 sequence (O60563 whole entry, chain 2 of 2, further chain): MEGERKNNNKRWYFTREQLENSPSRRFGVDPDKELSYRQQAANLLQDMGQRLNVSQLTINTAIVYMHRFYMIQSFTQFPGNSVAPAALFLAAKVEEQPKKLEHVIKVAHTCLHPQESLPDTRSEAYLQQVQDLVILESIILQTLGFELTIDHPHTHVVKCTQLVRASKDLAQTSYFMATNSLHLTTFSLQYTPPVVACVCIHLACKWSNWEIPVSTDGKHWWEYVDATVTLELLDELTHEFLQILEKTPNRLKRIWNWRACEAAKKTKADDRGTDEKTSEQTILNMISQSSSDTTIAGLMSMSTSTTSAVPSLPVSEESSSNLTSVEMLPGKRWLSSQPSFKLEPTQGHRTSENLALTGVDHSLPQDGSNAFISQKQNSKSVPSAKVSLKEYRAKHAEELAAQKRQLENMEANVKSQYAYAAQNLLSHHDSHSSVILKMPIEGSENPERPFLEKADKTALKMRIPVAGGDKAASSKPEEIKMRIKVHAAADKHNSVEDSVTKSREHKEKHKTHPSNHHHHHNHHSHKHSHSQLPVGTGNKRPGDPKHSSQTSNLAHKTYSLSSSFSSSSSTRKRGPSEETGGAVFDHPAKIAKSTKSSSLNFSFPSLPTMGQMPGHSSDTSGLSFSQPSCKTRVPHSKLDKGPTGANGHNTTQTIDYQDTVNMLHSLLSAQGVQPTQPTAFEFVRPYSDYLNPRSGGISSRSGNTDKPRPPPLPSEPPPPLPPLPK

B1: GFP-tagged BRD4 short C terminus construct (Cs), 170 residues from the C terminus of BRD4 (other)
chain: DLKIKNMGSWASLVQKHPTTPSSTAKSSSDSFEQFRRAAREKEEREKALKAQAEHAEKEKERLRQERMRSREDEDALEQARRAHEEARRRQEQQQQQRQEQQQQQQQQAAAVAAAAT[about 60 residues not given here]
notes: also called BRD4-Cs; C-terminal fragment Cs; not shown: NLS-GFP tag of vector TetOn-NLS-GFP
B1: binds.
